From the supplement of paper PMC12632987 come the findings set out here.

Sequences and labels used below:
T1: TRAF2, Q12933
T1 chain: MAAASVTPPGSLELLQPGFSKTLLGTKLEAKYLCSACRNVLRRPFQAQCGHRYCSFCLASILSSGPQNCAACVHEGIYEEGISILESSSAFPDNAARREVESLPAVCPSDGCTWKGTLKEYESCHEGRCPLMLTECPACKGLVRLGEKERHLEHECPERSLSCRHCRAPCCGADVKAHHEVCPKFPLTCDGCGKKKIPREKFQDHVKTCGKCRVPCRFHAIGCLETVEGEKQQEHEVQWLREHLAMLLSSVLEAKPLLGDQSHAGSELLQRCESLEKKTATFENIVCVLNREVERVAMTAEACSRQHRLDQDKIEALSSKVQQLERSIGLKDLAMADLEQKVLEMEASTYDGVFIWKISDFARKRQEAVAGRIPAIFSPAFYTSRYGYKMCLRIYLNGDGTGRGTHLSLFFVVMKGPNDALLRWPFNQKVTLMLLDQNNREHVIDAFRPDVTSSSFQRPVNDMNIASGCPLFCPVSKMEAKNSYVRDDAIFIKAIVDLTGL

B1: traf2_out_19_16_1986 (protein)
chain: AEEEAQKLIEEMKAYMDKALDLAKESVANLDKLSREELSDKLVEISELMRKAQEALQKALELLKDDPERRAELQAEFDAKRDEINRLMTIIVNKLEELLK
B2: traf2_out_16_104_1399 (protein)
chain: SAAKQARFDAIIAELEAIAEELQRIANEIYELYLKADPETKVKLSDLLVEASEARRFALEAAEQARRDRETGGDLAEAEARLAEARKRAERVRKEAEALK
B3: traf2_out_12_148_939 (protein)
chain: SNKEKAEELRELLRERAARLRAAAQALSPEVQALVAAETDRLLDAADIVADFSLEDLLSAIRTRLEAFAHLLSQHPEAAPLVAAVRAFAAEVEEKAKELA
B4: traf2_out_19_16_1980 (protein)
chain: KEEELKKLEKELEEIKKRVEELEKYFEENKDTLTREELSDLLVEVSELKRRALEILQKLKELKDVDPERVEKLEKEAEEVIERAQRLANELVERYEELLK
B5: traf2_out_14_166_1277 (protein)
chain: MTPEEIERIRKIVDELEPLTDAAVARARAILDKVRDKLSPEDLARVEALLALAARNIGSSAINALREIAKIYKKAGLDEAAAAMQALADELEEKLKKLNK
B6: traf2_out_5_189_2319 (protein)
chain: SSREEEEERDRELARRLNKEAIELLEELKKRNASHEEIKEEFIKRAKTLSIEEARLYTGIMYSILMGEAIVNNDEELKKAAEEMHKEILAWIREREKELA
B7: traf2_out_1_27_1025 (protein)
chain: SDEELTALIKETDRKIANSTPEEAKEIVKKAIKEAYKLGKSDAILLARTLVASQLDPERAKIIKEAVLEALKELGFSQETLDRVAKVMDSSIERIKKVLA
B8: traf2_out_15_48_1368 (protein)
chain: DAAAYRAAMNEAADAILATKDKVREKVKELAAKASPEVKAKLDAVVALIDAGAGSQDIIAALKEAAKKASPEEKKKLEALAKELEAARREASKIAAEMEK
B9: traf2_out_13_95_1114 (protein)
chain: SKELAEKIMEIADKALDKANELLDKLLAEIKASGKLPPEVEAALNAAKKSTIRTAIHTLQELAKEYPEFKELFEATIEELEKIRREAGKEVAKLIKEEKE
B10: traf2_out_6_3_2524 (protein)
chain: SEESLRADARKILEGMGITTAEQLRTLVTAEVNAVRQLVSRPDTDRADLAGARSVLALSRAIVDVAAETLPDLTPEQVAALRALIAAAEELIAAREAELA
B11: traf2_out_20_3_2210 (protein)
chain: KELEEKLKEELEKALKLLKEAKKLADPETAKKLDELIKRLKASEELSYEDRLVELSEIRREVLLLAQEAKAKGNEELAKVLEKAADAIQRAMNLVYKIIE
B12: traf2_out_13_95_1165 (protein)
chain: EEEKTKKEREIASEAYDEMEKVARDFAARVRALIDDPEADALMDEVVRNMNIYTLEAAAARLQAAHPEHAAEIAALAAEALAKMREIIKETTEKLNEIEE
B13: traf2_out_18_147_1812 (protein)
chain: SWKDAIDKIADLSEEIRELMREIAELTGEEEETKELEDILTSTSVSDEEKEKAVEEAIKKYKEKGKEEAVEKLKKALELSKKRKEAAKEANKLINEEEAK
B14: traf2_out_12_187_967 (protein)
chain: SVEEELIEAAKEALRQALKALEKAAPEHPRFQEMLKRLKEVEKLLEKHPEVAADVTVAASLILRAVRLLEAGLPQEEVDAALAAAEKELEEVLKKLKELE
B15: traf2_out_20_3_2067 (protein)
chain: SELEEELEKELEKALKLLKEAAKKADPATAKELEALIKRLKESRELSYSDRLVEVSEVRREVLALAEKAKAAGDAELAKLLDKAADALNRAAQLLYDILQ
B16: traf2_out_1_27_1013 (protein)
chain: SDEELTALIKKTDKEVASVNLEEAKEVVKKAIKEAYKLGKGDAVMLARTLVASELDKERAEAITEAALEAFKELGFPEEEIEELRKIFESIMERIEKVLA
B17: traf2_out_17_162_1526 (protein)
chain: SALEERLAELEAELERLEEELERLKERLERIDELSKEELTDLLVEASEARRRARELAEELRELRAEIGEERAEELIERAERIAEELQRIANELYKRLEEK
B18: traf2_out_18_157_1819 (protein)
chain: MTEEELLRLAKWAQEASDAFDDLAAEVADASLDEIIAAFKALAAKQVEAGKEFPKETVLDMLKRQARRAIERIGAARGLSPEEVQAMIDTVNAAIEEKVA
B19: traf2_out_15_180_1322 (protein)
chain: MTEEELKRRIELANEVADKADDRLAELLAANPGLSEAEKAALRALRRSVTTLLFNGEEAEAAAAVAAAKARLSPEAAAVADELYAFIRELVAAAKAELAA

In all, about 1,800 sequences were measured (“median log2 fold change of GCK-ALFA target abundance (FLAG IP / Myc IP barcode read proportion)”: median about 0.14, lowest 2% from about -0.84 on). This is one part of the list.

For this experiment, the target named is T1, TRAF2, Q12933. Description: median log2 fold change of GCK-ALFA target abundance (FLAG IP / Myc IP barcode read proportion) (log2 ratio); each designed protein is fused to an ALFA-tag nanobody in HEK293 cells to bring the named protein to FLAG-tagged glucokinase (GCK); Myc marks an untargeted standard; higher = target protein stabilised (more abundant). Conditions: target protein: 3xFLAG-MCP-GCK-ALFA reporter; HEK293 landing pad (RPLP). The method in brief:
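HEK293 landing-pad cells received a recombined binder library fused to the ALFA nanobody and were induced with 2 μg mL^−1 doxycycline, then transfected with a plasmid encoding a FLAG-tagged target and a Myc-tagged standard. Lysates were collected after 48 h for anti-FLAG and anti-Myc immunoprecipitation, and the circular RNA barcodes were reverse transcribed, amplified and sequenced. Target abundance for each binder is the median log2 ratio of FLAG to Myc barcode read proportions. Barcodes had to reach a proportion of at least 10^−7 in both replicates, each binder needed at least 3 barcodes per replicate, a pseudocount of 10^−6 was applied, and the two replicates were pooled.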
Turning to B1, the “median log2 fold change” value is 0.445.
For B2 the value was -0.0653; for B3, 0.268; for B4, 0.116.
As to B5, the “median log2 fold change” value came out at 0.354.
As for B6, the “median log2 fold change” value came to 0.331.
On to B7, for which the “median log2 fold change” value came out at 0.141.
Turning to B8, the “median log2 fold change” value was determined as 0.483.
Then B9, with 0.00211.
On to B10, for which the “median log2 fold change” value is -0.125.
For B11 the value was 0.436.
For B12 the value was 0.174; for B13, 0.176.
As for B14, the “median log2 fold change” value came to 0.215.
For the molecule B15, the “median log2 fold change” value turned out to be 0.201.
Consider B16, for which the “median log2 fold change” value is 0.335.
As to B17, the “median log2 fold change” value worked out at 0.249.
As to B18, the “median log2 fold change” value is 0.268.
For B19 the value was 0.295.
